Test results reported in the supplement of paper PMC8728848.
The other results are listed elsewhere or left out.

Experiments:
Assay in all cases: glycan array binding signal (z-score within array); higher = stronger binding
Details in all cases: glycan notation: IUPAC condensed, linker removed
[1] = target: Neu5Ac(a2-6)Gal(b1-4)GlcNAc(b1-3)Gal(b1-4)GlcNAc(b1-3)Gal(b1-4)GlcNAc(b1-2)Man(a1-3)[Neu5Ac(a2-6)Gal(b1-4)GlcNAc(b1-3)Gal(b1-4)GlcNAc(b1-3)Gal(b1-4)GlcNAc(b1-2)Man(a1-6)]GalNAc
Procedure, shortened: (§1)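 Negative Z-scores can be read as non-binding. The Z-score is calculated within each array and then averaged across arrays of one protein sequence at different concentrations or buffers and across linkers. Arrays, 3228 in all, were curated from the Consortium for Functional Glycomics database and kept only where the protein sequence was available.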

[2] = target: Neu5Ac(a2-6)Gal(b1-4)GlcNAc(b1-3)Gal(b1-4)GlcNAc(b1-3)GalNAc
Procedure, shortened: as §1

[3] = target: Neu5Ac(a2-6)Gal(b1-4)GlcNAc(b1-3)Gal(b1-4)GlcNAc(b1-3)[Neu5Ac(a2-6)Gal(b1-4)GlcNAc(b1-3)Gal(b1-4)GlcNAc(b1-6)]GalNAc
Procedure, shortened: as §1

[4] = target: Neu5Ac(a2-6)Gal(b1-4)GlcNAc(b1-3)Gal(b1-4)GlcNAc(b1-6)[Gal(b1-3)]GalNAc
Procedure, shortened: as §1

[5] = target: Neu5Ac(a2-6)Gal(b1-4)GlcNAc(b1-3)Gal(b1-4)[Fuc(a1-3)]GlcNAc(b1-3)Gal(b1-4)[Fuc(a1-3)]GlcNAc
Procedure, shortened: as §1

[6] = target: Neu5Ac(a2-6)Gal(b1-4)GlcNAc(b1-3)GalNAc
Procedure, shortened: as §1

[7] = target: Neu5Ac(a2-6)Gal(b1-4)GlcNAc(b1-3)[Neu5Ac(a2-6)Gal(b1-4)GlcNAc(b1-6)]GalNAc
Procedure, shortened: as §1

[8] = target: Neu5Ac(a2-6)Gal(b1-4)GlcNAc(b1-6)GalNAc
Procedure, shortened: as §1

[9] = target: Neu5Ac(a2-6)Gal(b1-4)GlcNAc(b1-6)[Gal(b1-3)GlcNAc(b1-3)]Gal(b1-4)Glc
Procedure, shortened: as §1

[10] = target: Neu5Ac(a2-6)Gal(b1-4)GlcNAc(b1-6)[Gal(b1-3)]GalNAc
Procedure, shortened: as §1

[11] = target: Neu5Ac(a2-6)Gal(b1-4)GlcNAc6S
Procedure, shortened: as §1

Neu5Ac(a2-6)GalNAc = target: Neu5Ac(a2-6)GalNAc
Procedure, shortened: as §1

[12] = target: Neu5Ac(a2-6)GalNAc(b1-4)GlcNAc
Procedure, shortened: as §1

[13] = target: Neu5Ac(a2-6)GalNAc(b1-4)GlcNAc6S
Procedure, shortened: as §1

[14] = target: Neu5Ac(a2-6)GlcNAc(b1-4)GlcNAc
Procedure, shortened: as §1

[15] = target: Neu5Ac(a2-6)GlcNAc(b1-4)GlcNAc(b1-4)GlcNAc
Procedure, shortened: as §1

Neu5Ac(a2-8)Neu5Ac = target: Neu5Ac(a2-8)Neu5Ac
Procedure, shortened: as §1

[16] = target: Neu5Ac(a2-8)Neu5Ac(a2-3)Gal(b1-3)GalNAc(b1-4)[Neu5Ac(a2-3)]Gal(b1-4)Glc
Procedure, shortened: as §1

[17] = target: Neu5Ac(a2-8)Neu5Ac(a2-3)Gal(b1-3)GalNAc(b1-4)[Neu5Ac(a2-8)Neu5Ac(a2-3)]Gal(b1-4)Glc
Procedure, shortened: as §1

[18] = target: Neu5Ac(a2-8)Neu5Ac(a2-3)Gal(b1-4)Glc
Procedure, shortened: as §1

[19] = target: Neu5Ac(a2-8)Neu5Ac(a2-3)Gal(b1-4)GlcNAc
Procedure, shortened: as §1

[20] = target: Neu5Ac(a2-8)Neu5Ac(a2-3)[Gal(b1-3)GalNAc(b1-4)]Gal(b1-4)Glc
Procedure, shortened: as §1

[21] = target: Neu5Ac(a2-8)Neu5Ac(a2-3)[GalNAc(b1-4)]Gal(b1-4)Glc
Procedure, shortened: as §1

[22] = target: Neu5Ac(a2-8)Neu5Ac(a2-8)Neu5Ac
Procedure, shortened: as §1

[23] = target: Neu5Ac(a2-8)Neu5Ac(a2-8)Neu5Ac(a2-3)Gal(b1-4)Glc
Procedure, shortened: as §1

[24] = target: Neu5Ac(a2-8)Neu5Ac(a2-8)Neu5Ac(a2-3)[Gal(b1-3)GalNAc(b1-4)]Gal(b1-4)Glc
Procedure, shortened: as §1

[25] = target: Neu5Ac(a2-8)Neu5Ac(a2-8)Neu5Ac(a2-3)[GalNAc(b1-4)]Gal(b1-4)Glc
Procedure, shortened: as §1

[26] = target: Neu5Ac(a2-8)Neu5Ac(a2-8)Neu5Ac(a2-8)Neu5Ac(a2-3)[GalNAc(b1-4)]Gal(b1-4)Glc
Procedure, shortened: as §1

[27] = target: Neu5Ac(a2-8)Neu5Gc(a2-3)Gal(b1-4)GlcNAc
Procedure, shortened: as §1

[28] = target: Neu5Ac(b2-6)Gal(b1-4)GlcNAc
Procedure, shortened: as §1

Neu5Ac(b2-6)GalNAc = target: Neu5Ac(b2-6)GalNAc
Procedure, shortened: as §1

[29] = target: Neu5Ac9Ac(a2-3)Gal(b1-4)GlcNAc
Procedure, shortened: as §1

[30] = target: Neu5Ac9Ac(a2-6)Gal(b1-4)GlcNAc
Procedure, shortened: as §1

[31] = target: Neu5Gc(a2-3)Gal(b1-3)GlcNAc
Procedure, shortened: as §1

[32] = target: Neu5Gc(a2-3)Gal(b1-3)[Fuc(a1-4)]GlcNAc
Procedure, shortened: as §1

Neu5Gc(a2-3)Gal(b1-4)Glc = target: Neu5Gc(a2-3)Gal(b1-4)Glc
Procedure, shortened: as §1

[33] = target: Neu5Gc(a2-3)Gal(b1-4)GlcNAc
Procedure, shortened: as §1

[34] = target: Neu5Gc(a2-3)Gal(b1-4)GlcNAc(b1-3)Gal(b1-4)GlcNAc(b1-2)Man(a1-3)[Neu5Gc(a2-3)Gal(b1-4)GlcNAc(b1-3)Gal(b1-4)GlcNAc(b1-2)Man(a1-6)]Man(b1-4)GlcNAc(b1-4)GlcNAc
Procedure, shortened: as §1

[35] = target: Neu5Gc(a2-3)Gal(b1-4)[Fuc(a1-3)]GlcNAc
Procedure, shortened: as §1

[36] = target: Neu5Gc(a2-6)Gal(b1-4)GlcNAc
Procedure, shortened: as §1

Neu5Gc(a2-6)GalNAc = target: Neu5Gc(a2-6)GalNAc
Procedure, shortened: as §1

[37] = target: Neu5Gc(a2-8)Neu5Ac(a2-3)Gal(b1-4)GlcNAc
Procedure, shortened: as §1

[38] = target: Neu5Gc(a2-8)Neu5Gc(a2-3)Gal(b1-4)GlcNAc
Procedure, shortened: as §1

[39] = target: Neu5Gc(a2-8)Neu5Gc(a2-3)Gal(b1-4)GlcNAc(b1-3)Gal(b1-4)GlcNAc
Procedure, shortened: as §1

[40] = target: Neu5Gc(a2-8)Neu5Gc(a2-6)Gal(b1-4)GlcNAc
Procedure, shortened: as §1

B1: Microvirin-2 (Microcystis aeruginosa) (protein)
chain: MPNFSHTCSSINYDPDSTILSAECQARDGEWLPTELRLSDHIGNIDGELQFGDQNFQETCQDCHLEFGDGEQSVWLVCTCQTMDGEWKSTQILLDSQIDNNDSQLEIGGSMPNFSHTCSSINYDPDSTILSAECQARDGEWLPTELRLSDHIGNIDGELQFGDQNFQETCQDCHLEFGDGEQSVWLVCTCQTMDGEWKSTQILLDSQIDNNDSQLEIG
[1]
  glycan array binding signal (z-score): 0.076
[2]
  glycan array binding signal (z-score): -0.13
[3]
  glycan array binding signal (z-score): 0.02
[4]
  glycan array binding signal (z-score): -0.123
[5]
  glycan array binding signal (z-score): -0.094
[6]
  glycan array binding signal (z-score): -0.123
[7]
  glycan array binding signal (z-score): -0.138
[8]
  glycan array binding signal (z-score): -0.072
[9]
  glycan array binding signal (z-score): -0.121
[10]
  glycan array binding signal (z-score): -0.107
[11]
  glycan array binding signal (z-score): -0.142
Neu5Ac(a2-6)GalNAc
  glycan array binding signal (z-score): -0.133
[12]
  glycan array binding signal (z-score): -0.136
[13]
  glycan array binding signal (z-score): -0.141
[14]
  glycan array binding signal (z-score): -0.135
[15]
  glycan array binding signal (z-score): -0.139
Neu5Ac(a2-8)Neu5Ac
  glycan array binding signal (z-score): -0.134
[16]
  glycan array binding signal (z-score): -0.143
[17]
  glycan array binding signal (z-score): -0.131
[18]
  glycan array binding signal (z-score): -0.14
[19]
  glycan array binding signal (z-score): -0.139
[20]
  glycan array binding signal (z-score): -0.138
[21]
  glycan array binding signal (z-score): -0.137
[22]
  glycan array binding signal (z-score): -0.137
[23]
  glycan array binding signal (z-score): -0.139
[24]
  glycan array binding signal (z-score): -0.132
[25]
  glycan array binding signal (z-score): -0.141
[26]
  glycan array binding signal (z-score): -0.13
[27]
  glycan array binding signal (z-score): -0.141
[28]
  glycan array binding signal (z-score): -0.141
Neu5Ac(b2-6)GalNAc
  glycan array binding signal (z-score): -0.138
[29]
  glycan array binding signal (z-score): -0.119
[30]
  glycan array binding signal (z-score): -0.146
[31]
  glycan array binding signal (z-score): -0.115
[32]
  glycan array binding signal (z-score): -0.137
Neu5Gc(a2-3)Gal(b1-4)Glc
  glycan array binding signal (z-score): -0.12
[33]
  glycan array binding signal (z-score): -0.123
[34]
  glycan array binding signal (z-score): -0.12
[35]
  glycan array binding signal (z-score): -0.125
[36]
  glycan array binding signal (z-score): -0.127
Neu5Gc(a2-6)GalNAc
  glycan array binding signal (z-score): -0.133
[37]
  glycan array binding signal (z-score): -0.139
[38]
  glycan array binding signal (z-score): -0.148
[39]
  glycan array binding signal (z-score): -0.133
[40]
  glycan array binding signal (z-score): -0.139
